The supplement of paper PMC8728848
The other results are listed elsewhere or left out.

Tests used:
Experiment in all cases: glycan array binding signal (z-score within array); higher = stronger binding
Details in all cases: glycan notation: IUPAC condensed, linker removed
[1] = target: GlcNAc(b1-3)Gal(b1-4)GlcNAc(b1-3)Gal(b1-4)GlcNAc(b1-2)Man(a1-3)[GlcNAc(b1-3)Gal(b1-4)GlcNAc(b1-3)Gal(b1-4)GlcNAc(b1-2)Man(a1-6)]Man(b1-4)GlcNAc(b1-4)[Fuc(a1-6)]GlcNAc
Procedure, shortened: (§1)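 Columns mapping to the same glycan were averaged after glycan names were converted to IUPAC-condensed notation. The data come from 3228 arrays in the Consortium for Functional Glycomics database, limited to those with an available protein sequence. Binding is reported as a within-array Z-score averaged across arrays of one protein sequence and across linkers.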

[2] = target: GlcNAc(b1-3)Gal(b1-4)GlcNAc(b1-3)Gal(b1-4)GlcNAc(b1-2)[GlcNAc(b1-3)Gal(b1-4)GlcNAc(b1-3)Gal(b1-4)GlcNAc(b1-6)]Man(a1-6)[GlcNAc(b1-3)Gal(b1-4)GlcNAc(b1-3)Gal(b1-4)GlcNAc(b1-2)Man(a1-3)]Man(b1-4)GlcNAc(b1-4)[Fuc(a1-6)]GlcNAc
Procedure, shortened: as §1

[3] = target: GlcNAc(b1-3)Gal(b1-4)GlcNAc(b1-3)Gal(b1-4)GlcNAc(b1-3)Gal(b1-4)GlcNAc(b1-2)Man(a1-3)[GlcNAc(b1-3)Gal(b1-4)GlcNAc(b1-3)Gal(b1-4)GlcNAc(b1-3)Gal(b1-4)GlcNAc(b1-2)Man(a1-6)]Man(b1-4)GlcNAc(b1-4)GlcNAc
Procedure, shortened: as §1

[4] = target: GlcNAc(b1-3)Gal(b1-4)GlcNAc(b1-3)Gal(b1-4)GlcNAc(b1-3)Gal(b1-4)GlcNAc(b1-2)Man(a1-3)[GlcNAc(b1-3)Gal(b1-4)GlcNAc(b1-3)Gal(b1-4)GlcNAc(b1-3)Gal(b1-4)GlcNAc(b1-2)Man(a1-6)]Man(b1-4)GlcNAc(b1-4)[Fuc(a1-6)]GlcNAc
Procedure, shortened: as §1

[5] = target: GlcNAc(b1-3)Gal(b1-4)GlcNAc(b1-3)Gal(b1-4)GlcNAc(b1-3)Gal(b1-4)GlcNAc(b1-2)[GlcNAc(b1-3)Gal(b1-4)GlcNAc(b1-3)Gal(b1-4)GlcNAc(b1-3)Gal(b1-4)GlcNAc(b1-6)]Man(a1-6)[GlcNAc(b1-3)Gal(b1-4)GlcNAc(b1-3)Gal(b1-4)GlcNAc(b1-3)Gal(b1-4)GlcNAc(b1-2)Man(a1-3)]Man(b1-4)GlcNAc(b1-4)[Fuc(a1-6)]GlcNAc
Procedure, shortened: as §1

[6] = target: GlcNAc(b1-3)Gal(b1-4)GlcNAc(b1-3)Gal(b1-4)GlcNAc(b1-3)Gal(b1-4)GlcNAc(b1-3)Gal(b1-4)GlcNAc(b1-2)Man(a1-3)[GlcNAc(b1-3)Gal(b1-4)GlcNAc(b1-3)Gal(b1-4)GlcNAc(b1-3)Gal(b1-4)GlcNAc(b1-3)Gal(b1-4)GlcNAc(b1-2)Man(a1-6)]Man(b1-4)GlcNAc(b1-4)GlcNAc
Procedure, shortened: as §1

[7] = target: GlcNAc(b1-3)Gal(b1-4)GlcNAc(b1-3)Gal(b1-4)GlcNAc(b1-3)Gal(b1-4)GlcNAc(b1-3)Gal(b1-4)GlcNAc(b1-2)Man(a1-3)[GlcNAc(b1-3)Gal(b1-4)GlcNAc(b1-3)Gal(b1-4)GlcNAc(b1-3)Gal(b1-4)GlcNAc(b1-3)Gal(b1-4)GlcNAc(b1-2)Man(a1-6)]Man(b1-4)GlcNAc(b1-4)[Fuc(a1-6)]GlcNAc
Procedure, shortened: as §1

[8] = target: GlcNAc(b1-3)Gal(b1-4)GlcNAc(b1-3)Gal(b1-4)GlcNAc(b1-3)Gal(b1-4)GlcNAc(b1-3)Gal(b1-4)GlcNAc(b1-2)[GlcNAc(b1-3)Gal(b1-4)GlcNAc(b1-3)Gal(b1-4)GlcNAc(b1-3)Gal(b1-4)GlcNAc(b1-3)Gal(b1-4)GlcNAc(b1-6)]Man(a1-6)[GlcNAc(b1-3)Gal(b1-4)GlcNAc(b1-3)Gal(b1-4)GlcNAc(b1-3)Gal(b1-4)GlcNAc(b1-3)Gal(b1-4)GlcNAc(b1-2)Man(a1-3)]Man(b1-4)GlcNAc(b1-4)[Fuc(a1-6)]GlcNAc
Procedure, shortened: as §1

[9] = target: GlcNAc(b1-3)Gal(b1-4)GlcNAc(b1-3)Gal(b1-4)GlcNAc(b1-3)GalNAc
Procedure, shortened: as §1

[10] = target: GlcNAc(b1-3)Gal(b1-4)GlcNAc(b1-3)GalNAc
Procedure, shortened: as §1

[11] = target: GlcNAc(b1-3)Gal(b1-4)GlcNAc(b1-3)[GlcNAc(b1-3)Gal(b1-4)GlcNAc(b1-3)]GalNAc
Procedure, shortened: as §1

[12] = target: GlcNAc(b1-3)Gal(b1-4)GlcNAc(b1-6)[Gal(b1-3)]GalNAc
Procedure, shortened: as §1

[13] = target: GlcNAc(b1-3)Gal(b1-4)GlcNAc(b1-6)[GlcNAc(b1-3)Gal(b1-3)]GalNAc
Procedure, shortened: as §1

[14] = target: GlcNAc(b1-3)Gal(b1-4)GlcNAc(b1-6)[GlcNAc(b1-3)]Gal(b1-4)GlcNAc
Procedure, shortened: as §1

GlcNAc(b1-3)GalNAc = target: GlcNAc(b1-3)GalNAc
Procedure, shortened: as §1

GlcNAc(b1-3)Man = target: GlcNAc(b1-3)Man
Procedure, shortened: as §1

[15] = target: GlcNAc(b1-3)[GlcNAc(b1-4)][GlcNAc(b1-6)]GlcNAc
Procedure, shortened: as §1

[16] = target: GlcNAc(b1-3)[GlcNAc(b1-6)]Gal(b1-4)GlcNAc
Procedure, shortened: as §1

[17] = target: GlcNAc(b1-3)[GlcNAc(b1-6)]GalNAc
Procedure, shortened: as §1

[18] = target: GlcNAc(b1-4)Gal(b1-4)GlcNAc
Procedure, shortened: as §1

GlcNAc(b1-4)GlcNAc = target: GlcNAc(b1-4)GlcNAc
Procedure, shortened: as §1

[19] = target: GlcNAc(b1-4)GlcNAc(b1-4)GlcNAc
Procedure, shortened: as §1

[20] = target: GlcNAc(b1-4)GlcNAc(b1-4)GlcNAc(b1-4)GlcNAc(b1-4)GlcNAc
Procedure, shortened: as §1

B1: GS7807E-bfa-538-23-538 (Bacteroides fragilis) (protein)
chain: TDSFESFNTNEAGFDNDSKKQDFNYYGIPLGIIQQGIYFNYDWGSGKNWPFQTMQNLGADLFSGYVHDFNPFNEGKNNSTYYMMDGWNGSTWDNTYGYIMPEVQKSETINEKDNIGFFGITKILKVELMHRLSDLYGPIVYTQFGSKTGSTPDTQQEAYKAFFNDLDTGIAKIREYQKANPDIESFAKFDILMPQGKRTFSEWIRFANSLRLRLAVRIAMADSKLAVAEAQKALTDEEGLLEGNDEVVAVSTSSGYTNPFGEINKAWGEVFMNANMESLLVGYEDPRMEKYFDKATGSDATSLIDYKGTYKGIRQGTGFSHKNYNGHSKSTITQQTDAVLMTPAEVWFLRAEAALRGWSSESVKDCYEKGVKASFAQWGAAGAEAYLESDRKPSDYVDAFKAANNVKAVNTLTPKWDDAAGNEDKLGRIITQKWLAMFPEGGEAWAEQRRTGYPRLFPVLVNQSEGTVDTNLGPRRLNFFVGIKTTNPEQYTQLVNALGGIDNCGTRLWWDTGRNF
glycan array binding signal (z-score) [1]: 0.135
glycan array binding signal (z-score) [2]: 1.92
glycan array binding signal (z-score) [3]: 0.228
glycan array binding signal (z-score) [4]: -0.408
glycan array binding signal (z-score) [5]: -0.457
glycan array binding signal (z-score) [6]: 0.374
glycan array binding signal (z-score) [7]: -0.491
glycan array binding signal (z-score) [8]: 0.103
glycan array binding signal (z-score) [9]: -0.689
glycan array binding signal (z-score) [10]: -0.644
glycan array binding signal (z-score) [11]: 0.752
glycan array binding signal (z-score) [12]: -0.669
glycan array binding signal (z-score) [13]: -0.354
glycan array binding signal (z-score) [14]: -0.684
glycan array binding signal (z-score) (GlcNAc(b1-3)GalNAc): -0.476
glycan array binding signal (z-score) (GlcNAc(b1-3)Man): -0.645
glycan array binding signal (z-score) [15]: -0.249
glycan array binding signal (z-score) [16]: -0.656
glycan array binding signal (z-score) [17]: -0.6
glycan array binding signal (z-score) [18]: -0.677
glycan array binding signal (z-score) (GlcNAc(b1-4)GlcNAc): -0.651
glycan array binding signal (z-score) [19]: -0.68
glycan array binding signal (z-score) [20]: -0.676
